This note sets out measurements from article PMC9911399, “Two distinct binding modes provide the RNA-binding protein RbFox with extraordinary sequence specificity”.

Where a chain is given by its changes, count along the chain named. This is one part of the list.

B1: UGGCUAA (DNA:RNA)
RNA: GGGAGACCGGAAUUCAGAUUGUCCUGGCUAAUUAAAUCCCGUCGUAGCCACCA
DNA 1: CAATCTGAATTCCGGTCTCCC
DNA 2: TGGTGGCTACGACGGGATT
B2: UAACAAA (DNA:RNA)
RNA: B1 RNA with G26A, G27A, U29A
DNA 1: CAATCTGAATTCCGGTCTCCC
DNA 2: TGGTGGCTACGACGGGATT
B3: CGUUUGG (DNA:RNA)
RNA: B1 RNA with U25C, G27U, C28U, A30G, A31G
DNA 1: CAATCTGAATTCCGGTCTCCC
DNA 2: TGGTGGCTACGACGGGATT
B4: CUGUAGG (DNA:RNA)
RNA: B1 RNA with U25C, G26U, C28U, U29A, A30G, A31G
DNA 1: CAATCTGAATTCCGGTCTCCC
DNA 2: TGGTGGCTACGACGGGATT
B5: UGGCUGA (DNA:RNA)
RNA: B1 RNA with A30G
DNA 1: CAATCTGAATTCCGGTCTCCC
DNA 2: TGGTGGCTACGACGGGATT
B6: AGUUGAG (DNA:RNA)
RNA: B1 RNA with U25A, G27U, C28U, U29G, A31G
DNA 1: CAATCTGAATTCCGGTCTCCC
DNA 2: TGGTGGCTACGACGGGATT
B7: AUCUAUA (DNA:RNA)
RNA: B1 RNA with U25A, G26U, G27C, C28U, U29A, A30U
DNA 1: CAATCTGAATTCCGGTCTCCC
DNA 2: TGGTGGCTACGACGGGATT
B8: GGCUAGU (DNA:RNA)
RNA: B1 RNA with U25G, G27C, C28U, U29A, A30G, A31U
DNA 1: CAATCTGAATTCCGGTCTCCC
DNA 2: TGGTGGCTACGACGGGATT
B9: GAUCAGG (DNA:RNA)
RNA: B1 RNA with U25G, G26A, G27U, U29A, A30G, A31G
DNA 1: CAATCTGAATTCCGGTCTCCC
DNA 2: TGGTGGCTACGACGGGATT
B10: CGCUGAA (DNA:RNA)
RNA: B1 RNA with U25C, G27C, C28U, U29G
DNA 1: CAATCTGAATTCCGGTCTCCC
DNA 2: TGGTGGCTACGACGGGATT
B11: UUCAGCC (DNA:RNA)
RNA: B1 RNA with G26U, G27C, C28A, U29G, A30C, A31C
DNA 1: CAATCTGAATTCCGGTCTCCC
DNA 2: TGGTGGCTACGACGGGATT
B12: CUUUCGG (DNA:RNA)
RNA: GGGAGACCGGAAUUCAGAUUGUCCCUUUCGGUUAAAUCCCGUCGUAGCCACCA
DNA 1: CAATCTGAATTCCGGTCTCCC
DNA 2: TGGTGGCTACGACGGGATT
B13: GACGGAC (DNA:RNA)
RNA: B1 RNA with U25G, G26A, G27C, C28G, U29G, A31C
DNA 1: CAATCTGAATTCCGGTCTCCC
DNA 2: TGGTGGCTACGACGGGATT
B14: AUACCUU (DNA:RNA)
RNA: B12 RNA with C25A, U27A, U28C, G30U, G31U
DNA 1: CAATCTGAATTCCGGTCTCCC
DNA 2: TGGTGGCTACGACGGGATT
B15: UCUCCAC (DNA:RNA)
RNA: B1 RNA with G26C, G27U, U29C, A31C
DNA 1: CAATCTGAATTCCGGTCTCCC
DNA 2: TGGTGGCTACGACGGGATT
B16: GAGAAGC (DNA:RNA)
RNA: B12 RNA with C25G, U26A, U27G, U28A, C29A, G31C
DNA 1: CAATCTGAATTCCGGTCTCCC
DNA 2: TGGTGGCTACGACGGGATT
B17: UAGAUGG (DNA:RNA)
RNA: B1 RNA with G26A, C28A, A30G, A31G
DNA 1: CAATCTGAATTCCGGTCTCCC
DNA 2: TGGTGGCTACGACGGGATT
B18: GCUGUAA (DNA:RNA)
RNA: B1 RNA with U25G, G26C, G27U, C28G
DNA 1: CAATCTGAATTCCGGTCTCCC
DNA 2: TGGTGGCTACGACGGGATT
B19: GACUAUA (DNA:RNA)
RNA: B12 RNA with C25G, U26A, U27C, C29A, G30U, G31A
DNA 1: CAATCTGAATTCCGGTCTCCC
DNA 2: TGGTGGCTACGACGGGATT
B20: CAGCUAG (DNA:RNA)
RNA: B1 RNA with U25C, G26A, A31G
DNA 1: CAATCTGAATTCCGGTCTCCC
DNA 2: TGGTGGCTACGACGGGATT

The assay has as its target T1, RBFOX1 RRM (Homo sapiens, UniProt Q9NWB1 109-208).
T1 sequence: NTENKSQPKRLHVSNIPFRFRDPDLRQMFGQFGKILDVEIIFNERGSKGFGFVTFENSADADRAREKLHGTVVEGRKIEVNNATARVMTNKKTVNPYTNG
Description: EMSA; HiTS-Eq, 1 nM pool, 10 min; buffer printed only for the single-RNA assays: 10 mM Tris pH 7.5, 150 mM NaCl, 3.4 mM EDTA, 0.001% NP-40, 30 C. The conditions noted are these: tags: His6 N-terminal (pET28a); label: 5' 32P. The method in brief:
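These values rest on relative association constants, computed from read-count changes of each RNA species versus the control reaction and normalised to the cognate motif. Reads came from free RNA recovered by 8% native PAGE after purified RbFox RRM (wild type or mutant) at increasing concentrations was equilibrated for 10 min in 50 µL with 1 nM of a 5′-radiolabelled pool with 7 randomized nucleotides and DNA-annealed flanks.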
For the molecule B1, the binding signal is 0.0139 KA relative to UGCAUGU.
In the case of B2 it was 0.001 KA relative to UGCAUGU; in that of B3, 0.0143 KA relative to UGCAUGU.
As for B4, the figure is 0.00936 KA relative to UGCAUGU; as for B5, 0.036 KA relative to UGCAUGU; as for B6, 0.014 KA relative to UGCAUGU.
Consider B7, for which the binding signal is 0.00079 KA relative to UGCAUGU.
As for B8, the binding signal is 0.0239 KA relative to UGCAUGU.
As for B9, the figure is 0.0103 KA relative to UGCAUGU.
For B10, the binding signal was 0.0132 KA relative to UGCAUGU.
In the case of B11 it was 0.0103 KA relative to UGCAUGU; in that of B12, 0.0104 KA relative to UGCAUGU; in that of B13, 0.0104 KA relative to UGCAUGU.
As for B14, the figure is 0.00186 KA relative to UGCAUGU; as for B15, 0.00432 KA relative to UGCAUGU; as for B16, 0.0124 KA relative to UGCAUGU.
In the case of B17, the binding signal is 0.0119 KA relative to UGCAUGU.
In the case of B18 it was 0.0158 KA relative to UGCAUGU; in that of B19, 0.00405 KA relative to UGCAUGU; in that of B20, 0.0155 KA relative to UGCAUGU.
